The results in this text go back to PMC5892938.

The other results are listed elsewhere or left out. At the low end of the ranking, values are background and their order means little.

The assay concerns the target GST-SBP-SLBP (stem-loop binding protein) (UniProt Q14493). The experiment in a line: targeted RNA Bind-n-Seq.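 Note: DESeq read counts versus GST-SBP nonspecific binding control pulldown.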 As to conditions: RBNS binding buffer: 25 mM Tris pH 7.5, 150 mM KCl, 3 mM MgCl2, 0.1% Tween, 0.5 mg/mL BSA, 1 mM DTT; 27 nM protein, 750 pM RNA pool; temperature not stated; high values mean tight binding.
Consider “GGUCACGUCUCAAUCAACUCAUCUUCCAGGGAAACCCCUGGUUUUUUCAACAGCUCGCAGUCAAG”, for which the binding signal (log2 fold change) came to 0.0576.
For “GGUCACGUCUCAAUCAACUCUAUCUCCAGGGAAACCCCUGGUUAUUUCAACAGCUCGCAGUCAAG”, the binding signal (log2 fold change) is -0.0755.
Consider “GGUCACGUCUCAAUCAACUCUCCUGAGGGGGGGAAAACCCCUUUACCCUCUAAUUCAACAGCUCGCAGUCAAG”, for which the binding signal (log2 fold change) is -0.16.
As for “GGUCACGUCUCAAUCAACUCAUAAGAGGGGGGGAAAACCCCUUUACCCUCCGUUUCAACAGCUCGCAGUCAAG”, the binding signal (log2 fold change) is -0.246.
On to “GGUCACGUCUCAAUCAACUCUUUCUCAGGAGUUUCCUCCUGCUUUCUCAACAGCUCGCAGUCAAG”, for which the binding signal (log2 fold change) turned out to be 0.00618.
Turning to “GGUCACGUCUCAAUCAACUCUUUCCCAGGAGUUUUCUCCUGCUUACUCAACAGCUCGCAGUCAAG”, the binding signal (log2 fold change) was determined as 0.137.
For “GGUCACGUCUCAAUCAACUCUUCCCCAGGAGUUUUCUCCUGUUAUGUCAACAGCUCGCAGUCAAG”, the binding signal (log2 fold change) is -0.00236.
Under “GGUCACGUCUCAAUCAACUCAAUUUCAGGAGUUUACUCCUGCUUAUUCAACAGCUCGCAGUCAAG” stands 0.0155; under “GGUCACGUCUCAAUCAACUCUCAAGAGGGGGGGAAAACCCCUUUGCCCUCAUCAUCAACAGCUCGCAGUCAAG”, -0.435; under “GGUCACGUCUCAAUCAACUCUUCUCCCAGGGAAAGCCCUGGCUAUGUCAACAGCUCGCAGUCAAG”, -0.208.
Under “GGUCACGUCUCAAUCAACUCUUCCCCCAGGGAAAUCCCUGGCAAUGUCAACAGCUCGCAGUCAAG” stands -0.0416; under “GGUCACGUCUCAAUCAACUCAAUCUCAGGAGUUUACUCCUGUAAUCUCAACAGCUCGCAGUCAAG”, 0.0307.
In the case of “GGUCACGUCUCAAUCAACUCAUACGAGGGGGGGAAAACCCCUUUACCCUCAAUCUCAACAGCUCGCAGUCAAG” it was 0.149.
Consider “GGUCACGUCUCAAUCAACUCAUUUCCAGGAGUUUGCUCCUGCAAUCUCAACAGCUCGCAGUCAAG”, for which the binding signal (log2 fold change) was 0.0311.
For “GGUCACGUCUCAAUCAACUCAUCCCCCAGGGAAAGCCCUGGUAUUUUCAACAGCUCGCAGUCAAG”, the binding signal (log2 fold change) is -0.281.
For “GGUCACGUCUCAAUCAACUCUACUCCCAGGGAAACCCCUGGUAAUUUCAACAGCUCGCAGUCAAG”, the binding signal (log2 fold change) came out at 0.236.
As to “GGUCACGUCUCAAUCAACUCAAGUCCCAGGGAAACCCCUGGCUAAUUCAACAGCUCGCAGUCAAG”, the binding signal (log2 fold change) is -0.279.
“GGUCACGUCUCAAUCAACUCAACUCCAGGAGUUUACUCCUGUUAACUCAACAGCUCGCAGUCAAG”: the binding signal (log2 fold change) is -0.0113.
Consider “GGUCACGUCUCAAUCAACUCUACUCCCAGGGAAAACCCUGGCUAAUUCAACAGCUCGCAGUCAAG”, for which the binding signal (log2 fold change) was -0.021.
Under “GGUCACGUCUCAAUCAACUCAUUUCCCAGGGAAAUCCCUGGCUUUUUCAACAGCUCGCAGUCAAG” stands -0.301; under “GGUCACGUCUCAAUCAACUCAUAAGAGGGGGGGAAAACCCCUUUGCCCUCCACAUCAACAGCUCGCAGUCAAG”, 0.145.
On to “GGUCACGUCUCAAUCAACUCUAUCUCCAGGGAAAUCCCUGGCAAUUUCAACAGCUCGCAGUCAAG”, for which the binding signal (log2 fold change) was -0.0912.
Under “GGUCACGUCUCAAUCAACUCUAGUCCCAGGGAAAACCCUGGCUUAUUCAACAGCUCGCAGUCAAG” stands -0.279; under “GGUCACGUCUCAAUCAACUCAACUUCCAGGGAAAUCCCUGGCAUACUCAACAGCUCGCAGUCAAG”, 0.0156.
For “GGUCACGUCUCAAUCAACUCAGUCGAGGGGGGGAAAACCCCUUUACCCUCAAUAUCAACAGCUCGCAGUCAAG”, the binding signal (log2 fold change) is -0.076.
Take “GGUCACGUCUCAAUCAACUCUAUUUCAGGAGUUUUCUCCUGCUAUUUCAACAGCUCGCAGUCAAG”: the binding signal (log2 fold change) was 0.0639.
Regarding “GGUCACGUCUCAAUCAACUCACUAGAGGGGGGGAAAACCCCUUUACCCUCCCAAUCAACAGCUCGCAGUCAAG”, the binding signal (log2 fold change) was -0.0462.
Under “GGUCACGUCUCAAUCAACUCAACUUCCAGGGAAAACCCUGGCGUAUUCAACAGCUCGCAGUCAAG” stands 0.25; under “GGUCACGUCUCAAUCAACUCAUUUCCCAGGGAAAUCCCUGGCUAUCUCAACAGCUCGCAGUCAAG”, 0.0811; under “GGUCACGUCUCAAUCAACUCUACUCCCAGGGAAAGCCCUGGCAUACUCAACAGCUCGCAGUCAAG”, 0.193.
Turning to “GGUCACGUCUCAAUCAACUCAUUCUCCAGGGAAACCCCUGGUUAUUUCAACAGCUCGCAGUCAAG”, the binding signal (log2 fold change) stood at 0.0201.
With “GGUCACGUCUCAAUCAACUCUCUAGAGGGGGGGAAAACCCCUUUACCCUCCUACUCAACAGCUCGCAGUCAAG”, the binding signal (log2 fold change) is -0.00694.
With “GGUCACGUCUCAAUCAACUCUUUAGAGGGGGGGAAAACCCCUUUGCCCUCAACAUCAACAGCUCGCAGUCAAG”, the binding signal (log2 fold change) was 0.187.
With “GGUCACGUCUCAAUCAACUCAAUCCCAGGAGUUUACUCCUGUAGUCUCAACAGCUCGCAGUCAAG”, the binding signal (log2 fold change) was -0.00604.
On to “GGUCACGUCUCAAUCAACUCAAUCCCAGGAGUUUUCUCCUGCAAAUUCAACAGCUCGCAGUCAAG”, for which the binding signal (log2 fold change) was -0.0302.
In the case of “GGUCACGUCUCAAUCAACUCAAUUCCAGGAGUUUACUCCUGCUUAUUCAACAGCUCGCAGUCAAG” it was -0.0529.
In the case of “GGUCACGUCUCAAUCAACUCAGUCUCAGGAGUUUCCUCCUGCUUUUUCAACAGCUCGCAGUCAAG” it was 0.0254.
